# The list shows a part of the results.
# T1: UNK ZnF1-6 (called full-length) (human, UniProt Q9C0B0 30-357)
# T1 sequence: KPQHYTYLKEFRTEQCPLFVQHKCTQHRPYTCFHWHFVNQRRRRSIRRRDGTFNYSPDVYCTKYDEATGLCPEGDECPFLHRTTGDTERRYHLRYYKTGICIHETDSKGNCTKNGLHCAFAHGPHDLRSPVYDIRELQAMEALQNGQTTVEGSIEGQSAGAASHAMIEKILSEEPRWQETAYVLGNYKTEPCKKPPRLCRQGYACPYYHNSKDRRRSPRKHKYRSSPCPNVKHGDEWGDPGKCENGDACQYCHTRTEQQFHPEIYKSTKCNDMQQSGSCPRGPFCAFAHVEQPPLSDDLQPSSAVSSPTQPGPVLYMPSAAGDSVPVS
# B1: chr16:85089731:85089832:+|3pUTR|ENSG00000135709|msi1|FALSE|unique (ssRNA)
# RNA: GGGAGUUCUACAGUCCGACGAUCUUGGAAGGUUUCCCUCCGGGGAAUGCCUCCCUGGAAUGUUCCAGAGACGGAACAUUCUCUAGAGACAACAGUCUGUGCUGCAGAUUGGUUGGAUCACAGAAUGUGUGUCUGGGGCAUUAUCAACAGAGGAUUGAGCAUCA
# B2: chr16:18805221:18805325:-|3pUTR|ENSG00000157106|unk|FALSE|bound_elsewhere (ssRNA)
# RNA: GGGAGUUCUACAGUCCGACGAUCAAGAAUUCUAUGUUCUGAAAUGCACACUUUUAGAAUGUUUUUCUUUGAAAACAGGCUAAUAGUUUUUUCUUUUUUUGACAAAGUUUCAGCUCCUCUUUAAAGUUAUUGUGUCAUUUUUCUCAACAGAGGAUUGAGCAUCA
# B3: ENSG00000070961:be:win_4701|3pUTR|ENSG00000070961|bound_else_gene|NA|bound_elsewhere_windowed (ssRNA)
# RNA: GGGAGUUCUACAGUCCGACGAUCUUUUCUAAUCUUUAGAGACCUUCACACAGCAUGAGGGCUGUUGGCAUUUUGAAAAAGGUUAAUAAGUAGAAGCAUACAUGUUUUCCUUUUGUUUUUGAAACUUGUUUGUAAACAUAAAUACAACAGAGGAUUGAGCAUCA
# B4: chr15:78897113:78897311:+|3pUTR|ENSG00000185787|unk|total|mutant (ssRNA)
# RNA: GGGAGUUCUACAGUCCGACGAUCUAACAAUUGAUGUUUGUUUUCUGUUUGAUUUUAAACAGAGAAAAAAUAAAAGGGGGUAACCGCUCCUUUUUUCUUCUUUCUUUUUUUUUUUCAUUUCAAAAUUGCUGCCAGUGUUUUCAACAACAGAGGAUUGAGCAUCA
# B5: chr8:47773456:47773635:-|3pUTR|ENSG00000253729|msi1_unk|FALSE|overlapping (ssRNA)
# RNA: GGGAGUUCUACAGUCCGACGAUCGUUUUUUCCUUUCAUUUUAUUCUCUUCUAGUUUUGACAUUUUAUGAUAGAUUUGCUCUCUAGAAGGAAACGUCUUUAUUUAGGAGGGCAAAAAUUUUGGUCAUAGCAUUCACUUUUGCUACAACAGAGGAUUGAGCAUCA
# B6: chr6:21598408:21598509:+|3pUTR|ENSG00000124766|msi1|FALSE|bound_elsewhere (ssRNA)
# RNA: GGGAGUUCUACAGUCCGACGAUCCGUUAAGGGUUUUUGUUUUUAAACUUUUUUUUGCCAUCCAUCCUGUGCAAUAUGCCGUGUAGAAUAUUUGUCUUAAAAUUCAAGGCCACAAAAACAAUGUUUGGGGGAAAAAAAAGAAAACAACAGAGGAUUGAGCAUCA
# B7: chr10:11920118:11920232:-|3pUTR|ENSG00000151461|unk|FALSE|unique (ssRNA)
# RNA: GGGAGUUCUACAGUCCGACGAUCGUAGUAUAUUUAGUCGGAGAGCACAUCUGUAUGCGACAACUUGAUUACAUCUUUUUUUCUAGCUAUUUUGCAUUUUUUCUUUUACCAUGUUUCAGUUUCUGCAUGUAGAUUUAAAUAAAACAACAGAGGAUUGAGCAUCA
# B8: chr2:25232207:25232317:-|3pUTR|ENSG00000119772|unk|FALSE|unique (ssRNA)
# RNA: GGGAGUUCUACAGUCCGACGAUCGGUGAGGGCCCGACGGGCAGGUGCUUGCCUGGGUAGAUGGGGUGUAGAUAUGUGGCAUAUAGAGAUAUAUAUUUUAUAAUGGGAGGGGGGAUGGCACCUCCUGGGACUGGUAGAGCUGGGCAACAGAGGAUUGAGCAUCA
# B9: chr8:39103990:39104232:+|3pUTR|ENSG00000168615|msi1|FALSE|unique (ssRNA)
# RNA: GGGAGUUCUACAGUCCGACGAUCGUUUUGUCAUUAAGUGUUUAAGUGUUAUUCUGAAUUUUCUACCUUAGUUAUCAUUAAUGUAGUUCCUCAUUGAACAUGUGAUAAUCUAAUACCUGUGAAAACUGACUAAUCAGCUGCCAACAACAGAGGAUUGAGCAUCA
# B10: chr10:27170558:27170670:+|CDS|ENSG00000120539|unk|FALSE|unique (ssRNA)
# RNA: GGGAGUUCUACAGUCCGACGAUCCUUAUGUGUGAACUCGAUGAAGACUGUGAAAAGAAUAGUAAGAGGGACUACUUAAGUUCUAGUUUUCUAUGUUCUGAUGAUGAUAGAGCUUCUAAAAAUAUUUCUAUGAACUCUGAUUCACAACAGAGGAUUGAGCAUCA
# B11: chr1:43978039:43978149:+|3pUTR|ENSG00000117410|unk|FALSE|unique (ssRNA)
# RNA: GGGAGUUCUACAGUCCGACGAUCGGCCGUGCCUCACUUUUAUUUAUUGCUGGUUUUCCUGGGACAGCUGGAGCUGUGUCCCUUAGCCUUUCAGAGGCUUGGUGUUCAGGGCCCUCCCUGCACUCCCCUCUUGCUGCGUGUUGACAACAGAGGAUUGAGCAUCA
# B12: chr3:62294290:62294391:+|3pUTR|ENSG00000144724|msi1|FALSE|unique (ssRNA)
# RNA: GGGAGUUCUACAGUCCGACGAUCAACUAGUCCUCUAAAAAUUCCCUAUUACUCCUAUAGCAAUCUAAUAAAAACUACCUACAUAGUUACUGUUUUCUUUCCUUCUUUGCCAAAUGUUUUAUAAUAAAUCUCUUAAUUACAUACCAACAGAGGAUUGAGCAUCA
# B13: chr4:48579112:48579224:-|CDS|ENSG00000075539|unk|FALSE|bound_elsewhere (ssRNA)
# RNA: GGGAGUUCUACAGUCCGACGAUCCUCUAUUGCCCUAGCUCGAUAGAUUUACAAACUUUAGCAGAAUGGAACUCUUCUCCUAUUAGCCACCAGUUUGAUGUGAUUAGUCCAUCACAUAUAUGGAUAUUUGCACAUGUGACCCAACAACAGAGGAUUGAGCAUCA
# B14: ENSG00000124766:be:win_3901|3pUTR|ENSG00000124766|bound_else_gene|NA|bound_elsewhere_windowed (ssRNA)
# RNA: GGGAGUUCUACAGUCCGACGAUCAAUAUGCCGUGUAGAAUAUUUGUCUUAAAAUUCAAGGCCACAAAAACAAUGUUUGGGGGAAAAAAAAGAAAAAAUCAUGCCAGCUAAUCAUGUCAAGUUCACUGCCUGUCAGAUUGUUGACAACAGAGGAUUGAGCAUCA
# Target: T1, UNK ZnF1-6 (called full-length)
# Experiment: nsRBNS (natural sequence RNA bind-n-seq); RBNS binding buffer (assumed for nsRBNS): 25 mM Tris pH 7.5, 150 mM KCl, 3 mM MgCl2, 0.01% Triton X-100, 500 ug/ml BSA, 20 U/ml SUPERase-In, 4 C; UNK is unkempt and MSI1 is Musashi-1; names of the RNAs are library labels; protein concentration not given here; high values mean tight binding
row,Binder,binding signal [enrichment R]
1,B1,0.337
2,B2,0.773
3,B3,0.479
4,B4,0.744
5,B5,5.42
6,B6,0.596
7,B7,21.9
8,B8,5.83
9,B9,0.546
10,B10,0.578
11,B11,0.892
12,B12,68.7
13,B13,1.85
14,B14,0.572

# From paper PMC12136788
